Data taken from PubChem BioAssay AID624171 (National Center for Advancing Translational Sciences (NCATS), 2012).
Out of some 410,000 compounds screened, about 1,200 (0.29%) were called active. The shares of active, inactive and inconclusive entries below differ from those in the screen. Calls follow the shape of the dose curve; as a rule, active = well fitted activation curve with a large enough effect; inconclusive = small, poorly fitted or top-dose-only effect; inactive = flat fitted curve, though single readings scatter. A potency beside an inconclusive call is a rough fit, not a confirmed value.
Potency is read from the fitted curve at half-maximal effect; tags tell the direction and shape of the fitted curve.

Assay: qHTS of Nrf2 Activators; also: nearly all actives have a fitted effect of over 65% in size
Conditions: AREc32 ARE-luciferase reporter (MCF7-derived line), luminescence, 24 h; series mostly up to 46.1 µM
Summary of the method: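 Steps: seed AREc32_Fluc cells (1000/well, 5% FBS OPTI-MEM); incubate overnight at 37 deg C; add 23 nL compound; incubate 24 hr; add Steady-Glo; hold 30 min RT; read luminescence.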
With `CCS(=O)(=O)C1C(=O)N(C)C(S(=O)(=O)CC)C(=O)N1C` (stereo unspecified) the Potency was “inactive”.
For `COc1ccccc1C1NC(=O)c2n[nH]c(-c3cccs3)c21` (stereo unspecified), the Potency was “inactive”.
For `Clc1cccc(Cl)c1/C=N\Nc1nccs1`, the Potency was active: 10 µM.
With `O=[N+]([O-])c1ccc(O)c(C2=NNC(c3ccccc3F)C2)c1` (stereo unspecified) the Potency was inconclusive: 0.562 µM [activator, full curve, poor fit].
In the case of `CCn1c(/C=C2/C(=O)N(C)c3ccccc32)nc2ccccc2c1=O`, the Potency was inconclusive: 11.2 µM [activator, partial curve, poor fit].
In the case of `Cc1cccc(N/C(N)=N/c2nc(C)cc(C)n2)c1`, the Potency was “inactive”.
In the case of `Cc1ccc(/C=C/C(=O)OCC(=O)Nc2cccnc2Cl)o1`, the Potency was active: 2.82 µM.
In the case of `COc1ccc(-c2csc3nc(C)nc(N4CCN(c5ccc(C(C)=O)cc5)CC4)c23)cc1OC`, the Potency was inconclusive: 22.4 µM [activator, single point].
In the case of `O=C(O)c1ccc(/C=C/C(=O)c2ccc3c(c2)OCCCO3)cc1`, the Potency was inconclusive: 25.1 µM [activator, single point].
In the case of `Cn1c2ccccc2c2ncn(Cc3ccco3)c(=O)c21`, the Potency was inconclusive: 14.1 µM [activator, single point].
For `Cn1c(NCCN2CCCC2)nc2cc(-c3ccsc3)sc2c1=O`, the Potency was inconclusive: 11.2 µM [activator, partial curve, poor fit].
For `CCOC(=O)Cc1csc(NC(=O)/C=C/c2ccccc2Cl)n1`, the Potency was inconclusive: 12.6 µM [activator, partial curve].
In the case of `CN(C)CCCN(C(=O)CCOc1ccccc1)c1nc2ccc(F)cc2s1`, the Potency was inconclusive: 3.55 µM [activator, single point].
For `CCSc1nn2c(=O)c3ccccc3nc2s1`, the Potency was inconclusive: 22.4 µM [activator, single point].
In the case of `Cc1ccc(O)c(N=Cc2sc3ccccc3c2Cl)c1`, the Potency was inconclusive: 20 µM [activator, single point].
For `O=C(NCc1ccccc1)c1cc2ccccc2oc1=O`, the Potency was “inactive”.
For `CC1=C(C(=O)N2CCOCC2)C(c2ccc(-c3ccccc3)cc2)NC(=S)N1` (stereo unspecified), the Potency was “inactive”.
In the case of `CN1CCN(Cc2nc3ccccc3c(=O)n2Cc2nc(-c3ccc([N+](=O)[O-])cc3)cs2)CC1`, the Potency was inconclusive: 22.4 µM [activator, single point].
With `Nc1c(Cl)cnn(-c2ccccc2)c1=O` the Potency was “inactive”.
With `Cc1ccc(CS(=O)(=O)c2ccc(C(=O)N3CCN(c4ccccn4)CC3)cc2[N+](=O)[O-])cc1` the Potency was inconclusive: 17.8 µM [activator, single point].
For `Clc1ccc(C2=CC(c3ccco3)n3ncnc3N2)cc1` (stereo unspecified), the Potency was inconclusive: 7.94 µM [activator, partial curve].
With `O=C(CSc1nnc2c(n1)[nH]c1ccccc12)NCc1ccco1` the Potency was inconclusive: 10 µM [activator, partial curve, poor fit].
In the case of `O=C(N/N=C/c1sc(=O)n(Cc2ccc(Br)cc2)c1Cl)c1ccco1`, the Potency was inconclusive: 1 µM [activator, full curve, poor fit].
With `Cc1cccc(-c2nnc(-c3cccc(NC(=O)Cc4cccs4)c3)o2)c1` the Potency was “inactive”.
For `CCOC(=O)C(CC)(CC)C(=O)/C=C/c1ccc(OC)cc1`, the Potency was inconclusive: 31.6 µM [activator, partial curve, poor fit].
With `Nc1nc(NCc2ccco2)nc(N2CCOCC2)c1[N+](=O)[O-]` the Potency was inconclusive: 12.6 µM [activator, partial curve].
For `O=C1CCCC2=C1C(c1ccco1)Nc1ccc3ccccc3c12` (stereo unspecified), the Potency was inconclusive: 12.6 µM [activator, partial curve].
With `CC1CCC/C(=C\Nc2ccc(O)cc2)C1=O` (stereo unspecified) the Potency was inconclusive: 20 µM [activator, single point].
In the case of `CC(C(=O)N(C)C1CCS(=O)(=O)C1)N1C(=O)/C(=C/c2ccc(F)cc2)SC1=S` (stereo unspecified), the Potency was “inactive”.
In the case of `Cc1ccc(C(C)C)c(OCc2ccc(C(=O)N/N=C/c3cccc(O)c3O)cc2)c1`, the Potency was “inactive”.
With `CCn1c(NC(=O)c2cccs2)nc2ccccc21` the Potency was inconclusive: 6.31 µM [activator, full curve].
With `Cc1ccc(Nc2ncnc(-n3cccc3)n2)cc1Cl` the Potency was inconclusive: 2.82 µM [activator, full curve, poor fit].
With `O=C(Cc1nnc(NC(=O)c2ccccc2)s1)N/N=C\c1ccc(O)c(O)c1` the Potency was inconclusive: 15.8 µM [activator, single point].
In the case of `Cc1nc2ccc(NS(=O)(=O)c3ccccc3Cl)cc2s1`, the Potency was “inactive”.
With `O=C(CSc1nc(=O)n(Cc2ccco2)c2c1CCC2)NCc1ccccc1` the Potency was “inactive”.
In the case of `Cc1cccc(OCCSc2nnc(-c3cccs3)o2)c1`, the Potency was inconclusive: 28.2 µM [activator, single point].
With `Cc1ccc2nc(/C(C#N)=C/c3ccccc3F)[nH]c2c1` the Potency was inconclusive: 15.8 µM [activator, single point].
For `CC1CCC(NS(=O)(=O)c2cccc3nsnc23)CC1` (stereo unspecified), the Potency was “inactive”.
For `CCOc1ccc(CCNC(=O)C2CCCN(S(=O)(=O)N(C)c3ccc(F)cc3)C2)cc1` (stereo unspecified), the Potency was “inactive”.
In the case of `COc1cccc(-c2nc3ccccc3s2)c1`, the Potency was inconclusive: 2.82 µM [activator, full curve, poor fit].
For `Cc1noc(C)c1-c1ccc2ncnc(NCC3CCCCN3C)c2c1` (stereo unspecified), the Potency was inconclusive: 2.82 µM [activator, full curve, poor fit].
In the case of `COc1ccc(COc2ccsc2C(=O)Nc2ccc(Cl)c(Cl)c2)cc1`, the Potency was inconclusive: 7.94 µM [activator, partial curve].
For `Cc1ccc(S(=O)(=O)NCCC(=O)OCC(=O)Nc2cccc(S(=O)(=O)NC3=NCCCCC3)c2)cc1`, the Potency was “inactive”.
With `COc1cccc(NC(=O)C2CCC(CNS(=O)(=O)c3ccc4c(c3)CCCC(=O)N4)CC2)c1` (stereo unspecified) the Potency was inconclusive: 10 µM [activator, partial curve].
For `Cn1ncc(C(=O)Nc2ccc(OC(F)(F)F)cc2)c1-n1cccc1`, the Potency was inconclusive: 11.2 µM [activator, partial curve].
For `Cc1cc(-c2nnc(-c3cccc(C(F)(F)F)c3)o2)no1`, the Potency was inconclusive: 22.4 µM [activator, single point].
